The other results are listed elsewhere or left out. Rule as the data show it: active = 3.2 or more and inactive = the rest. Only a few entries rise above the background.
B1: TTN_Y32175_T32171N (peptide)
chain: SNKELYEKYMI
B2: TTN_Y32175_YF (peptide)
chain: STKELYEKFMI
B3: TTR_Y125_A129T (peptide)
chain: SGPRRYTIATL
B4: TTR_Y125_G121S (peptide)
chain: SSPRRYTIAAL
B5: TTYH2_Y424_T419I (peptide)
chain: IRNRDYDDIDD
B6: TUBA1A_Y262 (peptide)
chain: TNLVPYPRIHF
B7: TUBA1A_Y262_R264C (peptide)
chain: TNLVPYPCIHF
B8: TUBA1A_Y399_R402C (peptide)
chain: KFDLMYAKCAF
B9: TUBA1A_Y451_E447K (peptide)
chain: EKGEEYGGGGG
B10: TUBA3E_Y103_YF (peptide)
chain: DAASNYARGHF
B11: TUBB_Y222 (peptide)
chain: LTTPTYGDLNH
B12: TUBB3_Y208_E205K (peptide)
chain: DNKALYDICFR
B13: TUBB3_Y422_D417H (peptide)
chain: HLVSEYQQYQD
B14: TUBB3_Y422_D417H_YF (peptide)
chain: HLVSEYQQFQD
B15: TWNK_Y508_V507I (peptide)
chain: HAVYIYDICHV
B16: TYRO3_Y828 (peptide)
chain: GRDQPYSGAGD
B17: TYROBP_Y111_Y111H (peptide)
chain: NTQRPHYKGGG
B18: TYROBP_Y112_Y111H (peptide)
chain: TQRPHYKGGGG
B19: U2SURP_Y634 (peptide)
chain: DLNATYRTIQG
B20: UBA5_Y53 (peptide)
chain: VDSNPYSRLMA
B21: UBA7_Y524_N527K (peptide)
chain: TTEHIYGDKFF
B22: UBD_Y161_C162F (peptide)
chain: LFLACYFIGGG
B23: UBE3A_Y127 (peptide)
chain: FKDVTYLTEEK
B24: UBE3A_Y127_T129K (peptide)
chain: FKDVTYLKEEK
B25: UCP2_Y79_R76Q (peptide)
chain: GPQSLYNGLVA
B26: UFSP2_Y285_YF (peptide)
chain: VVQGIYGFHHF
B27: UFSP2_Y287_Y290H (peptide)
chain: QGIYGYHHHMQ
B28: UGGT2_Y1289 (peptide)
chain: EYGFRYELVQY
B29: UGGT2_Y823_A821T (peptide)
chain: IATTIYSGDKI
B30: UGT1A1_Y337 (peptide)
chain: TVLWRYTGTRP
B31: UNC13C_Y308_D304E (peptide)
chain: REIHDYIKHLG
B32: UNC13D_Y56 (peptide)
chain: QRALLYEDALY
B33: UNC13D_Y61 (peptide)
chain: YEDALYTVLHR
B34: UNC13D_Y61_A59T (peptide)
chain: YEDTLYTVLHR
B35: UNG_Y8_Q4R (peptide)
chain: GRKTLYSFFSP
B36: UPB1_Y362_T359M (peptide)
chain: KMMGRYEMYAR
B37: UPB1_Y362_YF (peptide)
chain: KMTGRYEMFAR

The binders below were run against SHP2 C-SH2 domain E139D (assay: enrichment score (SH2-bound / input frequency) (ratio); bacterial display of known human phosphotyrosine sites (pTyr-Var adds point mutants) read by sequencing; higher = stronger binding; tyrosines were phosphorylated by kinases first). Settings: peptide library: pTyr-Var.
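Also: displayed peptides selected on beads carrying the immobilized SH2 domain, with library peptides lacking any tyrosine serving as negative controls.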

Enrichment score, active:
B22 3.59

Enrichment score, inactive:
B1 1.02
B2 1.07
B3 0.435
B4 0.629
B5 0.357
B6 1.05
B7 1.38
B8 0.662
B9 0.341
B10 0.631
B11 0.429
B12 0.825
B13 1.14
B14 0.869
B15 2.87
B16 0.499
B17 1.06
B18 1.26
B19 0.802
B20 0.753
B21 0.746
B23 1.01
B24 0.44
B25 0.585
B26 1.68
B27 2.41
B28 0.911
B29 0.622
B30 0.291
B31 1.35
B32 0.889
B33 0.939
B34 1.08
B35 1.51
B36 0.898
B37 1.52

Each binder was assayed against SHP2 C-SH2 domain wild-type in the same assay as above. Settings: peptide library: pTyr-Var.

Enrichment score, inactive:
B1 0.785
B2 1.02
B3 0.544
B4 0.548
B5 0.4
B6 0.932
B7 1.45
B8 0.826
B9 0.433
B10 0.526
B11 1.33
B12 0.896
B13 1.22
B14 0.754
B16 0.516
B17 0.925
B18 1.23
B19 1.15
B20 1.5
B21 0.551
B23 0.759
B24 0.751
B25 0.576
B26 1.36
B27 2.54
B28 1.18
B29 0.801
B30 0.316
B31 0.992
B32 0.759
B33 1.1
B34 1.27
B35 0.875
B36 1.09
B37 1.13

Enrichment score, active:
B15 4.02
B22 4

What follows are binders tested against SHP2 N-SH2 domain L43F in the same assay as above. Settings: peptide library: pTyr-Var.

Enrichment score, inactive:
B1 0.799
B2 1.23
B3 0.482
B4 0.606
B5 0.327
B6 1.19
B7 1.41
B8 0.904
B9 0.431
B10 0.758
B11 0.888
B12 0.932
B13 0.742
B14 0.952
B16 0.494
B17 1.01
B18 1.11
B19 0.834
B20 0.662
B21 0.686
B22 2.96
B23 0.777
B24 0.685
B25 0.632
B26 1.64
B27 2.69
B28 0.932
B29 0.743
B30 0.189
B31 1.08
B32 1.01
B33 1.01
B34 1.19
B35 1.2
B36 0.868
B37 1.19

Enrichment score, active:
B15 3.37

Each binder was assayed against SHP2 N-SH2 domain T42A in the same assay as above. Settings: peptide library: pTyr-Var.

Enrichment score, inactive:
B1 0.712
B2 0.923
B3 0.441
B4 0.599
B5 0.283
B6 0.884
B7 1.36
B8 1.03
B9 0.363
B10 0.68
B11 0.644
B12 0.821
B13 0.915
B14 0.728
B15 3.03
B16 0.365
B17 0.845
B18 1.26
B19 0.594
B20 0.43
B21 0.651
B22 2.9
B23 0.994
B24 0.941
B25 0.502
B26 1.73
B27 2.42
B28 0.903
B29 0.559
B30 0.265
B31 1.14
B32 0.551
B33 0.956
B34 1
B35 0.959
B36 0.82
B37 1.27

Each binder was assayed against SHP2 N-SH2 domain T52S in the same assay as above. Settings: peptide library: pTyr-Var.

Enrichment score, inactive:
B1 1.07
B2 1.09
B3 0.4
B4 0.553
B5 0.363
B6 1.01
B7 1.11
B8 0.993
B9 0.496
B10 0.657
B11 0.985
B12 0.774
B13 0.857
B14 0.949
B16 0.43
B17 0.883
B18 1.26
B19 0.746
B20 0.677
B21 0.685
B22 3.04
B23 1
B24 0.705
B25 0.455
B26 1.57
B27 2.43
B28 0.816
B29 0.842
B30 0.327
B31 1.41
B32 0.648
B33 0.908
B34 0.992
B35 1.2
B36 1.08
B37 1.37

Enrichment score, active:
B15 3.74

These binders were tested against SHP2 N-SH2 domain wild-type in the same assay as above. Settings: peptide library: pTyr-Var.

Enrichment score, inactive:
B1 1.06
B2 1.09
B3 0.521
B4 0.579
B5 0.366
B6 1.09
B7 1.59
B8 1.21
B9 0.462
B10 0.568
B11 1.24
B12 1.4
B13 1.08
B14 0.724
B16 0.602
B17 1.15
B18 1.23
B19 0.728
B20 0.526
B21 0.705
B22 3.03
B23 0.976
B24 0.665
B25 0.595
B26 1.52
B27 2.42
B28 1.06
B29 0.835
B30 0.322
B31 1.23
B32 0.903
B33 1.08
B34 1.08
B35 1.28
B36 0.899
B37 1.38

Enrichment score, active:
B15 3.88
